Assay results: article PMC12103069, “Structure predictions of MuRF1‐UBE2 complexes identify amino acid residues governing interaction selectivity for each MuRF1‐E2 pair” (The Febs Journal, 2025)

Molecular target: T1, GST-MuRF1 (MuRF1 full length, TRIM63) (Rattus norvegicus, red fluorescent dye NT-647, covalently, by amine coupling)
T1 construct: MuRF1 / TRIM63, Rattus norvegicus, full length; Cloned in pGEX6P3; also called MuRF1FL; fluorescent MuRF1
Assay: other fluorescence titration; change in the initial fluorescence of dye-labelled GST-MuRF (10 nM, constant) with a 16-sample serial dilution of the E2; MonolithX (NanoTemper), premium capillaries, 100% MST power, 25 °C; 50 mM HEPES pH 7.4, 150 mM NaCl, 0.005% Tween20, 0.1% dextran
Details: both partners purified

Kd: 6.9 µM
B1: UBE2L3 F63A (enzyme)
chain: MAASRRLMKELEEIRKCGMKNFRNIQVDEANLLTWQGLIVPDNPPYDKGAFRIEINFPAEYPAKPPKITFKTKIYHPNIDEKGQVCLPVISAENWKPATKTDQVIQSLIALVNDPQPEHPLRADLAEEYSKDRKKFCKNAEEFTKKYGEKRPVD
notes: UBE2L3, Mus musculus; source: mutated form synthesized by GeneCust; E. coli Rosetta (DE3), purified (Ni-NTA)
